Data on 46 compounds can be found in publication PMC4336329 (PLoS ONE, 2015).

Molecules are shown by their SMILES. About 14,000 (4.5%) of roughly 310,000 compounds showed an effect of 50% or more. Effects have a minus sign here. The list shows a part of the results.
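Also: peak tail current of the secondary pulse compared with the same well before compound.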

Sequence of human ether-à-go-go-related gene (hERG) potassium channel (Q12809 whole entry, looked up): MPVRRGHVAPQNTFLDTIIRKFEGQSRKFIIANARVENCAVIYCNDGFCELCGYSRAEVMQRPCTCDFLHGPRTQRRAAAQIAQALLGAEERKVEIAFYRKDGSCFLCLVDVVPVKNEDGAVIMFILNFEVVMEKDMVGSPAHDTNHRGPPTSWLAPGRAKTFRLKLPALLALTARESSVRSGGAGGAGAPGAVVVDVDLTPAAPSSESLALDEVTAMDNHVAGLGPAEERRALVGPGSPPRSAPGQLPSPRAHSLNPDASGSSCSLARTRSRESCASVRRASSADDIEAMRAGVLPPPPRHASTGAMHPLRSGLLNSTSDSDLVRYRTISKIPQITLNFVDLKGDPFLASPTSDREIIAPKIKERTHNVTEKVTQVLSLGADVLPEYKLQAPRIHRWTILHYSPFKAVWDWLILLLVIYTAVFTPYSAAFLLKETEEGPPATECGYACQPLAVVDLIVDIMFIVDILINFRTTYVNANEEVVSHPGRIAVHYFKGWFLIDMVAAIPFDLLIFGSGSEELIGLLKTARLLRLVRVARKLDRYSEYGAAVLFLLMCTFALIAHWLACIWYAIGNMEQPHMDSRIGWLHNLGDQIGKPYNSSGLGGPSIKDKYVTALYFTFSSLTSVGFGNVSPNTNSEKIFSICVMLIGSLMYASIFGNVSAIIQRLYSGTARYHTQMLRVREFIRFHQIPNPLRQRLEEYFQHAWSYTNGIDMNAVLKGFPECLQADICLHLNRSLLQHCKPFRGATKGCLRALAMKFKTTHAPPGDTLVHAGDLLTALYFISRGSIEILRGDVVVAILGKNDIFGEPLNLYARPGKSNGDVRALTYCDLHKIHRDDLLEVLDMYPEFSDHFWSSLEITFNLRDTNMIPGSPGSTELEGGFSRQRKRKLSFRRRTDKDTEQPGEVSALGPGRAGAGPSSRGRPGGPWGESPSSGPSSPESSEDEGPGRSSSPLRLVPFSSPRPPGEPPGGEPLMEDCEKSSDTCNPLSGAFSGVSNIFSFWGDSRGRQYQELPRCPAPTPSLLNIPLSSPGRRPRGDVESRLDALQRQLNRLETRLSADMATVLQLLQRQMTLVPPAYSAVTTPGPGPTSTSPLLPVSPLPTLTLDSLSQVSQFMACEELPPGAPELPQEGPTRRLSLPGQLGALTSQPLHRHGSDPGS

This assay concerns the target human ether-à-go-go-related gene (hERG) potassium channel (human, UniProt Q12809). Description: primary screen, population patch clamp on CHO cells stably expressing hERG.
With `CCOc1ccccc1NC(=O)c1ccoc1C`, the “hERG current change (%, negative = inhibition) at 10uM” value is 15.5%. For the compound `CC(=O)Nc1ccc(S(C)(=O)=O)c(C)c1`, the “hERG current change (%, negative = inhibition) at 10uM” value worked out at 3.53%. Regarding `CC(C)C[C@H](NC(=O)NC(C)C)C(=O)O`, the “hERG current change (%, negative = inhibition) at 10uM” value is recorded as 3.08%.

Consider `Cc1ccccc1CN1C(=O)c2ccccc2Sc2ccc(C(=O)NCCN3CCOCC3)cc21`, for which the “hERG current change (%, negative = inhibition) at 10uM” value was -69.6%. For the compound `COc1ccc(CN(CC(=O)NCc2ccccc2)C(=O)CCC(=O)Nc2nccs2)cc1`, the “hERG current change (%, negative = inhibition) at 10uM” value is reported as -1.67%. As to `CCOCCOc1nc(C)cc(C)c1S(=O)(=O)c1ccccc1C`, the “hERG current change (%, negative = inhibition) at 10uM” value is -4.15%. With `CC(C)(C)OC(=O)NCCCCc1cn(CC(=O)N2CCN(C(=O)OC(C)(C)C)CC2)nn1`, the “hERG current change (%, negative = inhibition) at 10uM” value is 26.3%. Regarding `CCOC(=O)NCc1ccc(S(=O)(=O)Nc2c(C)cccc2C)cc1`, the “hERG current change (%, negative = inhibition) at 10uM” value is recorded as -4.3%. `CCN(C(=O)COC(=O)CNC(=O)c1ccccc1C)C1=CCCCC1`: the “hERG current change (%, negative = inhibition) at 10uM” value is recorded as -10%. In the case of `Cc1cc(NC(=S)NC(=O)c2ccco2)c2ccccc2n1`, the “hERG current change (%, negative = inhibition) at 10uM” value is -1.51%. For `CC(C)CCNC(=O)C1CCCN(S(=O)(=O)c2ccc3c(c2)CC(C)N3C(=O)C2CC2)C1` (stereo not shown), the “hERG current change (%, negative = inhibition) at 10uM” value is -7.5%.

On to `Cl.OC(CNC1CCCC1)COc1ccc(F)cc1` (stereo not shown), for which the “hERG current change (%, negative = inhibition) at 10uM” value is 5.27%. As for `Cc1onc(C(=O)NCc2ccccn2)c1[N+](=O)[O-]`, the “hERG current change (%, negative = inhibition) at 10uM” value is reported as -0.19%. For the compound `Cc1nn(CCN)c(C)c1Cl.Cl`, the “hERG current change (%, negative = inhibition) at 10uM” value was 14.4%. As for `O=C(O)CCC(=O)N1CCN(Cc2ccc3c(c2)OCO3)CC1`, the “hERG current change (%, negative = inhibition) at 10uM” value is 11.6%. Consider `Cc1ccc(NC(=O)CSc2nnc(C)c(=O)n2N)cc1`, for which the “hERG current change (%, negative = inhibition) at 10uM” value was 6.33%. Consider `COc1ccc(C(=O)NCc2ccc(-n3cccc3)cc2)cc1OC`, for which the “hERG current change (%, negative = inhibition) at 10uM” value is reported as -2.73%. Consider `O=C(CCCn1c(=S)[nH]c2ccc(Br)cc2c1=O)N1CCN(c2ccccn2)CC1`, for which the “hERG current change (%, negative = inhibition) at 10uM” value is listed as -5.36%.

Regarding `CC1CN(C(=O)COC(=O)c2cc(Cl)ccc2Cl)CC(C)O1` (stereo not shown), the “hERG current change (%, negative = inhibition) at 10uM” value is 2.74%. Under `COc1ccc(-n2cnc3scc(-c4ccccc4)c3c2=O)cc1` stands -1.83%; under `CC(C)OP(=O)(Nc1cccc2ccccc12)OC(C)C`, 9.36%; under `CC(C)(C)c1nc2scc(-c3cccs3)c2c(=O)o1`, 2.24%. In the case of `COc1ccc(S(=O)(=O)N2CCCOC2CNC(=O)C(=O)NCCCN2CCOCC2)cc1` (stereo not shown), the “hERG current change (%, negative = inhibition) at 10uM” value was 16.4%. `Cc1ccc(-c2csc(NC(=O)c3cccc([N+](=O)[O-])c3)n2)cc1`: the “hERG current change (%, negative = inhibition) at 10uM” value was 1.35%. Under `COC(=O)CSC(C(=O)Nc1ccc(C)c(C)c1)c1ccccc1` (stereo not shown) stands -24.8%. For `CN(CC(=O)Nc1c(Cl)cccc1Cl)C(=O)Cc1ccc2c(c1)CCC2`, the “hERG current change (%, negative = inhibition) at 10uM” value was found to be 15.9%.

As to `CC(=O)C1C(c2ccc(F)cc2)c2c(noc2C)CC1(C)O` (stereo not shown), the “hERG current change (%, negative = inhibition) at 10uM” value worked out at 12.5%. Under `Cc1ccc(S(=O)(=O)NCCc2ccc(S(N)(=O)=O)cc2)cc1` stands -9.19%. Regarding `CSc1ccccc1OCc1cc(C(=O)N(C)Cc2cc(C)[nH]n2)no1`, the “hERG current change (%, negative = inhibition) at 10uM” value is listed as -14.8%. For `CC(=O)Nc1ccc(NC(=O)/C=C/c2cccc(C(F)(F)F)c2)cc1`, the “hERG current change (%, negative = inhibition) at 10uM” value is recorded as -1.91%. Take `CC1CCN(Cc2cnc(Cl)s2)CC1`: the “hERG current change (%, negative = inhibition) at 10uM” value is given as 4.56%. Turning to `CC(=O)NCc1ccc(-c2csc(N)n2)s1`, the “hERG current change (%, negative = inhibition) at 10uM” value stood at 10.4%.

In the case of `C/C(=N\Nc1cccc(Cl)c1)C1(C)N(O)C(C)(C)C(c2ccco2)=[N+]1[O-]` (stereo not shown), the “hERG current change (%, negative = inhibition) at 10uM” value is recorded as 3.88%. For `CC(C)NC(=O)NC(=O)COC(=O)c1cc(S(=O)(=O)N2CCCCC2)ccc1N1CCOCC1`, the “hERG current change (%, negative = inhibition) at 10uM” value is listed as -1.77%. Under `Cc1ccc(NS(=O)(=O)c2cc3c(cc2C)NC(=O)CO3)cc1` stands -21%.

Turning to `Cc1ccc(C(=O)OCC(=O)NCC2CCCO2)c(C)c1` (stereo not shown), the “hERG current change (%, negative = inhibition) at 10uM” value was determined as 9.22%. `O=C(Nc1nc(-c2ccc(F)c(F)c2)cs1)C1=COCCO1`: the “hERG current change (%, negative = inhibition) at 10uM” value is on record as -1.64%. As for `CC1CC(C)CN(CCCNC(=O)CN2C(=O)CSc3ccc(S(=O)(=O)N4CCCCC4)cc32)C1` (stereo not shown), the “hERG current change (%, negative = inhibition) at 10uM” value was -50.2%. Then `COc1cc(NC(=O)c2ccc3c(SCC(=O)O)c4c(nc3c2)CCCC4)cc(OC)c1OC`, with 12.3%; and `Cc1ccc(NC(=O)CN2C(=O)N/C(=C/c3ccco3)C2=O)cc1`, with 0.551%; and `CC(=O)Nc1ccc(S(=O)(=O)N2CCN(c3ccc([N+](=O)[O-])cc3)CC2)cc1`, with -28.9%. For the compound `O=C1COc2ccc(S(=O)(=O)Nc3cccc(Cl)c3)cc2N1`, the “hERG current change (%, negative = inhibition) at 10uM” value was -2.4%. Under `Cc1ccc(C(C)C)c(OCC(=O)N/N=C/c2ccc(S(=O)(=O)[O-])o2)c1` stands 12.1%; under `CS(=O)(=O)N1CCC(C(=O)Nc2ccc(Cl)cc2)CC1`, 3.58%. Turning to `CCCOc1ccc(-c2c(C(=O)N/N=C/c3ccncc3)nnn2-c2nonc2N)cc1`, the “hERG current change (%, negative = inhibition) at 10uM” value stood at 15.1%. Turning to `COc1ccc(NC(=O)CSc2nc(C(C)C)nc3c2c(=O)n(C)c(=O)n3C)c(OC)c1`, the “hERG current change (%, negative = inhibition) at 10uM” value stood at 23.5%.
